In PubChem BioAssay AID624417 (National Center for Advancing Translational Sciences (NCATS), 2012):
Where “and” joins values, the source holds several entries; their conditions need not be identical. Identical values can stand only once. Out of some 410,000 compounds screened, about 6,400 (1.6%) were called active. Inconclusive results, whose numbers are uncertain, are shown with a selection of clear calls. Calls come from the whole dose curve; as a rule, active = well fitted inhibition curve with a large enough effect; inconclusive = small, poorly fitted or top-dose-only effect; inactive = no such curve, though single readings can be large or run the other way. Potencies beside an inconclusive call are fits to weak or partial responses and may not hold up.

Each molecule was assayed against Glucagon-like peptide 1 receptor (Homo sapiens) (UniProt P43220) (assay: qHTS of GLP-1 Receptor Inverse Agonists (Inhibition Mode)). Conditions: HEK293 GLP-1R CRE-luciferase, luminescence, 24 h, GLP-1R form is constitutively active; series mostly up to 38.3 µM.
Summary of the method: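 Stable HEK293 clone (constitutively active GLP-1R + cAMP-response luciferase); 200 cells/uL plated, 12 h pre-culture, compound 24 hr, 37 deg C/5% CO2; detection reagent 12 min RT; luminescence.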
Note: nearly all actives have a fitted effect of over 55% in size.
Potency is the fitted concentration of half-maximal effect; tags give direction and shape of the fitted curve.

UniProt P43220, sequence (P43220 whole entry, looked up): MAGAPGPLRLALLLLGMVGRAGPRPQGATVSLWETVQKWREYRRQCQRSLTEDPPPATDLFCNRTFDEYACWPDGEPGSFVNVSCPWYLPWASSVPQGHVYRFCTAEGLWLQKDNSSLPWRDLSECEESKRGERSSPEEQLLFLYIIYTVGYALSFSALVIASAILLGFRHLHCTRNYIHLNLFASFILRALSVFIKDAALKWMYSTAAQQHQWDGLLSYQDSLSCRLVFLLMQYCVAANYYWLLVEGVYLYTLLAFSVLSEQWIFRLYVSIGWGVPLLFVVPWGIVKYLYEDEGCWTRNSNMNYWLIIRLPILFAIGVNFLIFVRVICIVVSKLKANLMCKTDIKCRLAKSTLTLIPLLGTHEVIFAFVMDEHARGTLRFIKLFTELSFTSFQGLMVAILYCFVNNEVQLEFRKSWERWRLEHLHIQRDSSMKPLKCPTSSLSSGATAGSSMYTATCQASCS

Potency, active:
CCOc1ccccc1N=NC1C(=O)N(C(N)=S)N=C1C (centres undefined) 0.891 µM
Cc1ccc(N2C(=O)C(CN(C)C)C2c2ccccc2)cc1 (centres undefined) 11.2 µM

Potency, inactive:
O=C(NC(=S)Nc1nc(-c2ccccc2)cs1)c1ccco1
S=C(NCc1ccccc1)NCc1ccccc1
O=C1CCC[C@@H]2C[C@@]3(C[C@@H]4CCN1[C@H]24)Nc1cc(Cl)ccc1NC3=NCc1ccccc1
c1ccc2c(c1)OCC(CNc1ncnc3sccc13)O2 (centres undefined)
CN(C(=O)n1cnc2ccccc21)c1ccccc1
COC(=O)CSc1nc(N)c2c3c(sc2n1)CCCC3
O=c1cc(N2CCCCC2)c(-c2ccccc2)nn1Cc1ccc(Cl)cc1
O=C(N/N=C/c1cccc(OC(=O)N2CCOCC2)c1)c1cccs1
O=C(NCc1ccc(F)cc1)c1ccncc1
Cc1cc(=O)n(Cc2ccc(OC(C)C)cc2)c(=S)[nH]1
CCOC(=O)N1CCN(C(=O)c2ccc3c(=O)n(-c4ccc(OC)cc4)c(=S)[nH]c3c2)CC1
COc1cc2c(cc1OC)[C@@H]1Cc3ccc(OC)c(OC)c3CN1CC2
COc1cc2c(cc1OC)C(C1C(=O)CC(C)(C)CC1=O)N(C(=O)CCl)CC2 (centres undefined)
Cc1nc2c([nH]1)C1(CCN(Cc3ccccc3)CC1)C(C#N)=C(N)O2

Potency, inconclusive:
COCCn1c(Cc2ccccc2)nnc1SCC(=O)NC1CCCCC1 10 µM [inhibitor, partial curve, poor fit]
Cc1cccc(N2CCN(C(=O)c3cc4ccc5cccnc5c4[nH]3)CC2)c1C 15.8 µM [inhibitor, single point]
C=CCOC(=O)C1=C(C)NC(SC)=C(C#N)C1c1ccc(OCC)cc1 (centres undefined) 10 µM [inhibitor, partial curve, poor fit] and 28.2 µM [inhibitor, single point]
O=C(Cc1ccc(F)cc1)N1CCN=C1SCc1ccc([N+](=O)[O-])cc1 11.2 µM [inhibitor, single point]
NC(CCc1ccccc1)c1csc(Nc2ccc(C(=O)NCCO)cc2)n1 (centres undefined) 22.4 µM [inhibitor, single point]
O=C(c1cccc(S(=O)(=O)N2CCCC2)c1)c1cccc(S(=O)(=O)N2CCCC2)c1 31.6 µM [inhibitor, partial curve, poor fit]
CCc1ccccc1NC(=O)N1CCN(Cc2nc3ccc(C)cc3o2)CC1 31.6 µM [inhibitor, single point]
O=[N+]([O-])c1c(NCCCO)cc(Sc2ccc(Cl)cc2)c2nonc12 1.12 µM [inhibitor, full curve, poor fit]
CN1CCN(C(c2ccc(Cl)cc2)c2cc(Cl)c3cccnc3c2O)CC1 (centres undefined) 11.2 µM [inhibitor, single point]
Clc1ccc(CN=C2Nc3ccccc3CS2)cc1 28.2 µM [inhibitor, single point]
CCc1nc2ccc(C(=O)N3CCN(c4ccccc4)CC3)cn2c1N(C)CCC(C)C 17.8 µM [inhibitor, single point]
Cc1cc(C(C)(C)C)oc1C(=O)N(CC(=O)NC1CCCC1)Cc1ccccc1Cl 14.1 µM [inhibitor, single point]
COc1ccc(-c2cc(C(F)(F)F)nc(S(=O)(=O)CCCC(=O)Nc3cc(C)on3)n2)cc1OC 28.2 µM [inhibitor, single point]
S=c1[nH]nc(-c2ccc3ccccc3n2)n1-c1cc(Cl)cc(Cl)c1 28.2 µM [inhibitor, single point]
Cc1c(C(=O)NCc2ccccc2C(F)(F)F)sc(=O)n1Cc1ccc2c(c1)OCO2 28.2 µM [inhibitor, single point]
Cc1ccc(C)c(N2CCN(C3(c4ccccc4)C(=O)c4ccccc4C3=O)CC2)c1 22.4 µM [inhibitor, single point]
O=C(CC1CCC1)NC(c1ccccc1)c1ccccc1 10 µM [inhibitor, partial curve, poor fit]
Cc1[nH]nc2nc(SCC(=O)NCCC3=CCCCC3)n(-c3ccc(Br)cc3)c(=N)c12 11.2 µM [inhibitor, partial curve, poor fit]
Cc1nc(SCc2ccccc2)c2ccsc2n1 14.1 µM [inhibitor, single point]
COc1ccc(NC(=S)N2CCC(c3ccc(C)cc3)C2)cc1 (centres undefined) 12.6 µM [inhibitor, partial curve]
COc1ccc(-c2c(C#N)c(SCC(=O)Nc3ccccc3)nc3c2CCCC3)cc1 2.82 µM [inhibitor, full curve]
CC(=O)N1N=C(c2ccccc2)CC1c1cn(C)c2ccccc12 (centres undefined) 11.2 µM [inhibitor, partial curve, poor fit]
Cc1ccc(NC(=S)NNC(=S)Nc2ccc(C)cc2C)cc1 11.2 µM [inhibitor, partial curve, poor fit]
CCC(CC)NC(=O)CO/N=C/c1ccccc1OC(F)F 10 µM [inhibitor, partial curve, poor fit]
COc1ccc(OCC(O)CNCCNc2nccc(C(F)(F)F)n2)cc1 (centres undefined) 28.2 µM [inhibitor, single point]
COC(=O)c1sc2ccccc2c1-n1cccc1C(=O)C(=O)Nc1ccc(Cl)cc1 11.2 µM [inhibitor, single point]
Cc1ccnc(Nc2nc(-c3ccc(F)cc3)cs2)c1 7.94 µM [inhibitor, partial curve, poor fit]
COc1ccc([N+](=O)[O-])cc1N(CC(O)CN(CC(C)C)CC(C)C)S(=O)(=O)c1ccc(C)cc1 (centres undefined) 28.2 µM [inhibitor, single point]
CC(OC(=O)c1cccc(S(=O)(=O)Nc2cccc(C(F)(F)F)c2)c1)C(=O)Nc1ccc2c(c1)OCCO2 (centres undefined) 10 µM [inhibitor, partial curve, poor fit]
CCCCn1c2ccc(C)cc2c2nnc(SCCN3CCCCC3)nc21 28.2 µM [inhibitor, single point]
COc1ccc(CNC(=O)CN2CCN(S(=O)(=O)c3cc(Br)ccc3Br)CC2)cc1OC 12.6 µM [inhibitor, single point]
Cc1ccc(C(=O)N(CC(=O)NC2CCCC2)c2ccccc2Cl)s1 3.98 µM [inhibitor, full curve]
CCOc1ccc(CNc2nc3ccccc3n2C)cc1 10 µM [inhibitor, single point]
C=C(C)C1CC=C(C)/C(=N/NC(=O)CCCNc2cccc(C)c2)C1 (centres undefined) 7.08 µM [inhibitor, partial curve, poor fit]
COc1ccc(OC)c(NC(=O)NCCCCc2ccccc2)c1 5.62 µM [inhibitor, full curve, poor fit]
CC(C)OCCCN1CN(S(=O)(=O)c2ccc(Cl)cc2)c2nc3ccccc3nc21 17.8 µM [inhibitor, partial curve, poor fit]
COc1ccc(/C=C2\CCc3c2nc2ccccc2c3C(=O)O)cc1OC 8.91 µM [inhibitor, partial curve]
CCCN(c1ccccc1F)S(=O)(=O)c1cc(-c2cc(C)no2)ccc1C 11.2 µM [inhibitor, partial curve, poor fit]
COc1ccccc1-c1ccc2nnc(SCC(=O)N3CCCC3)n2n1 28.2 µM [inhibitor, single point]
CCN(CC)S(=O)(=O)c1ccc2oc(C(=O)NC(C)C)c(C)c2c1 7.94 µM [inhibitor, partial curve, poor fit]
O=C(Nc1ccccc1N1CCCCC1)c1cc(S(=O)(=O)N2CCOCC2)ccc1Cl 8.91 µM [inhibitor, partial curve, poor fit]
COc1ccc(NC(=O)NC23CC4(C)CC(C)(CC(C)(C4)C2)C3)cc1 5.01 µM [inhibitor, partial curve]
COc1ccccc1NC(=O)CSCC(=O)N1c2ccccc2CCc2ccccc21 10 µM [inhibitor, partial curve, poor fit]
COc1ccccc1N1CCN(C(=O)c2cc3cc(F)ccc3[nH]2)CC1 3.55 µM [inhibitor, partial curve, poor fit]
COc1ccc(N2C(=O)CSC2c2ccc3c(c2)OCO3)c(OC)c1 (centres undefined) 6.31 µM [inhibitor, partial curve, poor fit]
NNc1nc2ccc(F)cc2s1 28.2 µM [inhibitor, single point]
COc1cccc(Cn2cnc(-c3ccccc3OC)c2-c2cc(C)cc(C)c2)c1 28.2 µM [inhibitor, single point]
CN(CCN(C)C(C)(C)C)C(=O)C(c1ccccc1)c1ccccc1 8.91 µM [inhibitor, partial curve, poor fit]
